# Experimental data as given in the supplement of paper PMC6531468.
# This is one part of the list. Read counts after selection give these values, which scatter widely. Scores sum up all selected molecules that hold the word; the word was not tested alone.
# Tested on: IMP3 KH1-4
# Test: 6-mer SELEX enrichment z-score vs GST control; IMP3 is the RNA-binding protein IGF2BP3; higher = more enriched by binding
# Conditions: construct: KH1-4 (164-579); SELEX round: R4
# Experimental: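 SELEX-seq with GST-tagged IMP3 KH1-4 (Pro164-Lys579) and an N40 RNA pool, round 4. 6-mer z-score of sequence-tag enrichment normalised to the corresponding GST SELEX round; RNA k-mers written as DNA (T for U).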
# IMP3 KH1-4, sequence (chain, as listed by the source): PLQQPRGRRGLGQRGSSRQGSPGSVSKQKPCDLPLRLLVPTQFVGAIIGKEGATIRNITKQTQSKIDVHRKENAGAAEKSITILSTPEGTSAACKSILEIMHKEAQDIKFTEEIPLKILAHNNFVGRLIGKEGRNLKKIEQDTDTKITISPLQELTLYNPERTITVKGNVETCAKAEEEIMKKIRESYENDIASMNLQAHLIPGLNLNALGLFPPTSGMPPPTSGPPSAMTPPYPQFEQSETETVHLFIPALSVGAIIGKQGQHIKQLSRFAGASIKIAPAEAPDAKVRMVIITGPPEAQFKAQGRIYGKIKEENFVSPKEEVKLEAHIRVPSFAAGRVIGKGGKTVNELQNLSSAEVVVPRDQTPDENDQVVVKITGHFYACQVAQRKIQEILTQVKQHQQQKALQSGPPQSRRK
row,Sequence,6-mer SELEX enrichment z-score
1,GAAGCT,-0.412
2,ACCGAA,-1.96
3,CCAGTC,0.629
4,CGGTTA,-0.041
5,ACTTCC,0.473
6,TTTTTA,0.92
7,AAGCAC,-0.104
8,CTACTC,-0.636
9,TCCTTA,0.795
10,GAGACT,-0.541
11,CACGCC,0.09
12,ATATGA,2.09
13,AGAACT,0.177
14,CAACGT,-1.22
15,TTAGAG,-0.18
16,CTGTCT,-0.045
17,CACCCC,-0.425
18,TTTAGT,0.391
19,TAGCCC,-0.602
20,TTCCGG,0.317

row,Sequence,6-mer SELEX enrichment z-score
1,AAAGTC,-0.259
2,TGGCCT,-0.133
3,TTGAAA,-0.074
4,AGATGG,0.747
5,AGGCTA,0.188
6,CAACGA,-1.69
7,GTTGCA,0.193
8,CGAGAA,-1.43
9,CAATAG,0.631
10,CCGTTA,0.18
11,CAATGA,0.601
12,AAAGCC,-1.66
13,GCCACC,0.369
14,GCACCA,0.506
15,AAGAAG,0.432
16,TCTTCC,0.489
17,TATGCA,1.11
18,ATAAAT,1.97
19,TACTAT,1.2
20,CTGACC,-1.13

# Tested on: IMP3 RRM1-2
# Sequence (chain, as listed by the source): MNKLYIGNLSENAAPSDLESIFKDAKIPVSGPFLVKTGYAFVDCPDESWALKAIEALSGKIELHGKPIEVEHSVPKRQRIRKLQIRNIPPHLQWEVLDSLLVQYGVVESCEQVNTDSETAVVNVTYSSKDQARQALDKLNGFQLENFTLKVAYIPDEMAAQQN
# Test: as above
# Conditions: construct: RRM1-2 (1-163); SELEX round: R2
# Experimental: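 SELEX-seq with GST-tagged IMP3 RRM1-2 (Met1-Asn163) and an N40 RNA pool, round 2. 6-mer enrichment z-score normalised to GST SELEX. RNA written as DNA (T = U).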
row,Sequence,6-mer SELEX enrichment z-score
1,GAAGCT,-0.447
2,ACCGAA,-2.02
3,CCAGTC,0.194
4,CGGTTA,0.084
5,ACTTCC,-0.01
6,TTTTTA,0.361
7,AAGCAC,0.533
8,CTACTC,0.074
9,TCCTTA,-0.006
10,GAGACT,-0.622
11,CACGCC,0.028
12,ATATGA,-0.586
13,AGAACT,-0.805
14,CAACGT,-0.324
15,TTAGAG,-0.081
16,CTGTCT,0.297
17,CACCCC,-0.846
18,TTTAGT,0.441
19,TAGCCC,-0.449
20,TTCCGG,-0.032

row,Sequence,6-mer SELEX enrichment z-score
1,AAAGTC,-0.673
2,TGGCCT,0.09
3,TTGAAA,-1.14
4,AGATGG,-0.261
5,AGGCTA,0.294
6,CAACGA,-0.914
7,GTTGCA,0.352
8,CGAGAA,-1.45
9,CAATAG,0.221
10,CCGTTA,-0.179
11,CAATGA,-0.52
12,AAAGCC,-1.74
13,GCCACC,-0.21
14,GCACCA,0.766
15,AAGAAG,-1.36
16,TCTTCC,0.241
17,TATGCA,0.21
18,ATAAAT,-0.598
19,TACTAT,0.184
20,CTGACC,-0.908

# Target: IMP3 full-length (UniProt O00425)
# UniProt O00425, sequence (O00425 whole entry): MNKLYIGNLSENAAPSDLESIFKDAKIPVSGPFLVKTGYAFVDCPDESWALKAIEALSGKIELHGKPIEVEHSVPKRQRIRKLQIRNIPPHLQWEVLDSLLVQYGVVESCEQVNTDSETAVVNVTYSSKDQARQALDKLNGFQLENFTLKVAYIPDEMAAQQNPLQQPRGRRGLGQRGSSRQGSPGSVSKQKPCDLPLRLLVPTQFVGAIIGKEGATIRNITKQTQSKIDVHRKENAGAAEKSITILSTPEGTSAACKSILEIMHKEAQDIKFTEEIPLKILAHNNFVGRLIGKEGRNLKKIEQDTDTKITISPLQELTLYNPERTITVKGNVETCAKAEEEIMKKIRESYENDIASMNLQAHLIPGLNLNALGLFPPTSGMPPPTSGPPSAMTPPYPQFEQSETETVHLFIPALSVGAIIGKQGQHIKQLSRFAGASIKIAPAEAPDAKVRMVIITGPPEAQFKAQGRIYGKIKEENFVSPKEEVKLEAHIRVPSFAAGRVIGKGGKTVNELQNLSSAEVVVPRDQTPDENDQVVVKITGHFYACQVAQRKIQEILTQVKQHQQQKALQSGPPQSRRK
# Test: as above
# Conditions: construct: FL IMP3 (1-579); SELEX round: R4
# Experimental: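 SELEX-seq with GST-tagged full-length IMP3 and an N40 RNA pool, round 4. Each 6-mer is scored as an enrichment z-score of sequence tags containing it, normalised to the matching GST SELEX round. RNA written as DNA (T = U).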
row,Sequence,6-mer SELEX enrichment z-score
1,GAAGCT,-0.474
2,ACCGAA,-1.8
3,CCAGTC,0.469
4,CGGTTA,-0.029
5,ACTTCC,-0.532
6,TTTTTA,0.212
7,AAGCAC,0.264
8,CTACTC,-0.457
9,TCCTTA,-0.095
10,GAGACT,-0.649
11,CACGCC,0.388
12,ATATGA,0.099
13,AGAACT,-0.557
14,CAACGT,-0.409
15,TTAGAG,-0.301
16,CTGTCT,0.111
17,CACCCC,-0.88
18,TTTAGT,0.202
19,TAGCCC,-0.699
20,TTCCGG,0.22

row,Sequence,6-mer SELEX enrichment z-score
1,AAAGTC,-0.298
2,TGGCCT,-0.039
3,TTGAAA,-0.987
4,AGATGG,0.075
5,AGGCTA,0.338
6,CAACGA,-1.15
7,GTTGCA,0.292
8,CGAGAA,-1.1
9,CAATAG,0.757
10,CCGTTA,-0.033
11,CAATGA,-0.145
12,AAAGCC,-1.91
13,GCCACC,0.645
14,GCACCA,1.46
15,AAGAAG,-0.795
16,TCTTCC,-0.129
17,TATGCA,0.4
18,ATAAAT,0.1
19,TACTAT,0.11
20,CTGACC,-1.37
